From PMC5839781 (The Journal of Cell Biology, 2018)

Target: T1, Flag-ZW10 (mouse, UniProt O54692 1-779)
T1 sequence (looked up): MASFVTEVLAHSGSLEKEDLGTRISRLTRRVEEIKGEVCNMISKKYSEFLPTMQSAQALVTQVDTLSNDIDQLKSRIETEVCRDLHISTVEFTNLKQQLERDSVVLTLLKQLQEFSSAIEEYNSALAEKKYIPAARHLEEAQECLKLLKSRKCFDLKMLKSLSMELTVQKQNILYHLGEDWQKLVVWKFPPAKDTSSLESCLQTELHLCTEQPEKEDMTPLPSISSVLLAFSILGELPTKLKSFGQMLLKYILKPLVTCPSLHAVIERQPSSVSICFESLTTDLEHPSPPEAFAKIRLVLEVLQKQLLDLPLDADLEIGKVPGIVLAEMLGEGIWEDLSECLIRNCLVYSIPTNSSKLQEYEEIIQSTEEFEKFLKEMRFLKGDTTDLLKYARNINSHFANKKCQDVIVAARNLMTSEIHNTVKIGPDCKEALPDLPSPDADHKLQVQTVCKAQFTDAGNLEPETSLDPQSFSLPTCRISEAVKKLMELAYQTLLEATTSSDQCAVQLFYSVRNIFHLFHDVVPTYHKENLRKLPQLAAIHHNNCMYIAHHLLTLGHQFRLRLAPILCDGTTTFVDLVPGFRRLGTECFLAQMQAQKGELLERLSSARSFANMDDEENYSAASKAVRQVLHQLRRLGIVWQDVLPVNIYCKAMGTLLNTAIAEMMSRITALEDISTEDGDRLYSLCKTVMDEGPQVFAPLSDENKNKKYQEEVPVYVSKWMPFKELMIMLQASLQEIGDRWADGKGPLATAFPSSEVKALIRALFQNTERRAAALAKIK
Test: pull-down

- binding result: binds
B1: GST-Rab18 (natural protein)
chain: not shown
